# Assay results taken from the supplement of paper PMC3334620.
# Whole data set: some 33,000 sequences, median “E-score (-0.5 to 0.5)” near -0.041, cut for the highest 2% near 0.37. This is one part of the list.
# Biological target: T1, Ecm22 (UniProt Q05958)
# T1 sequence: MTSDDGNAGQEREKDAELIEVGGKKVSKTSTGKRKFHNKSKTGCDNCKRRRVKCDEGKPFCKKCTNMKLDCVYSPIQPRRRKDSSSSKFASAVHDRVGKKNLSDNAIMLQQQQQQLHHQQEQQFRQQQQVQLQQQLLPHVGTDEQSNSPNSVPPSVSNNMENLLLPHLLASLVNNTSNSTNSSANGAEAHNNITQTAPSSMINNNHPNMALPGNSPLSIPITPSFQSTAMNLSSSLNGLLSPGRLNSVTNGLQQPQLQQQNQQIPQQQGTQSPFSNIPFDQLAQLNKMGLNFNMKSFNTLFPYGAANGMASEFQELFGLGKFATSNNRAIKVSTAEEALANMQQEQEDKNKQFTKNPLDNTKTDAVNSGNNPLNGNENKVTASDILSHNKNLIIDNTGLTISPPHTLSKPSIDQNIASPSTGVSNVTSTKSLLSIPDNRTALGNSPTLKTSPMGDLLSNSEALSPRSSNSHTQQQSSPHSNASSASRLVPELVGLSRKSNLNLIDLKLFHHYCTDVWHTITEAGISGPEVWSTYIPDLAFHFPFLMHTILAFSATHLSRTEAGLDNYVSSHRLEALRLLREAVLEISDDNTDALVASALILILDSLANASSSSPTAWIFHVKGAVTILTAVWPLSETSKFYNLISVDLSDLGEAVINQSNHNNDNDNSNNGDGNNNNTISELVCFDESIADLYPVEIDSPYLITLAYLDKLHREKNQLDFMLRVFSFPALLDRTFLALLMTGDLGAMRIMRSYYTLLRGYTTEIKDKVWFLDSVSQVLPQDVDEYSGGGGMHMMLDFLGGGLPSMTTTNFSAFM
# Experiment: PBM E-score (8-mer binding enrichment) (E-score (-0.5 to 0.5)); higher = stronger / more preferred TF binding; most listed sequences are background and not binding sites
# Conditions: protein concentration: 200 nM; construct: GST-full length
# Summary of the method: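 Yeast transcription factors carrying a GST tag, as full-length proteins or DNA-binding domains, were produced by PURExpress in vitro transcription/translation. About 100-200 nM protein was applied to universal all-10-mer Agilent arrays, double-stranded by primer extension on fresh or once-stripped slides. Bound protein was detected with fluorescent anti-GST, and scans were normalised with masliner. The Universal PBM Analysis Suite gave each ungapped eight-base word, pooled with its reverse complement, an E-score, a modified Wilcoxon-Mann-Whitney statistic.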
row,Sequence,PBM E-score
1,CGAAGGAG,0.129
2,ACGAGTCG,0.384
3,GAGAGACC,-0.21
4,TACATCTA,-0.0919
5,ACGTCCGC,0.0934
6,ACTCGAAA,0.0636
7,ACAACCGT,0.161
8,ACCCACGA,-0.0257
9,GTGACTAA,-0.037
10,GAGTCCGA,0.0343
11,GCCTAAGA,-0.219
12,GGCGAGTA,-0.0596
13,ATATCTCA,0.0447
14,GAGGCTGA,-0.296
15,TACGAGTA,0.467
16,CCGAGGTC,0.11
17,AAGTAAGC,-0.0306
18,TCTCCTCA,-0.104
19,GGAGTCTA,-0.398
20,ATCCTTAA,-0.138
21,CTTCCCAA,-0.12
22,GTGGGGGA,-0.123
23,GATATAAC,0.156
24,CGATTGGC,-0.0471
25,ATCACCCG,0.0266

row,Sequence,PBM E-score
1,CTCGTCCC,-0.0792
2,CTCCAGCC,-0.205
3,ACCTTTCG,0.094
4,ATTATTTG,0.00973
5,GTTCTGGA,0.205
6,TCAAGGAA,-0.181
7,AATCGCCA,-0.0664
8,AGTGGTAT,-0.166
9,TCCCGAAA,0.0359
10,ACAAGTAT,0.0351
11,AAGAGTGC,-0.0387
12,AATTTGGT,-0.00455
13,AGACTTAC,-0.0949
14,ATGCTCCG,0.0236
15,ACCACCCA,-0.173
16,AATGGATG,-0.0307
17,ACAGGTAA,-0.0149
18,ACACAACA,0.0892
19,AATGTTTC,-0.0614
20,CTCACTCC,-0.278
21,CTGAGTTC,-0.0251
22,GGGGTGAC,-0.162
23,GCACGCGA,0.0651
24,CTAAGTCC,-0.259
25,CCGCAAAC,0.0983

row,Sequence,PBM E-score
1,TACCCAAA,-0.112
2,CTATAGGC,-0.155
3,CTTGAAAG,-0.0974
4,CCACCGAG,-0.143
5,GCGCGAGC,0.0262
6,ACACTATG,0.0551
7,GGGCAACC,-0.164
8,ACTTGTAT,0.00095
9,AGCTCAAG,-0.182
10,CCGTCGAA,-0.015
11,AAATATTA,0.161
12,ACGAGGTA,0.413
13,ATCAATCC,-0.12
14,CGTTCCCA,0.443
15,CAACAATG,-0.0714
16,CATATTTC,-0.017
17,CCGATTGC,0.0808
18,GTGGACAC,-0.197
19,CCCCATAG,-0.228
20,ATAGTCCA,-0.155
21,AGCATCAG,-0.0729
22,ATTCCGGG,-0.177
23,AGGTAATC,-0.00582
24,CGCGTATC,0.232
25,AGTTCTGA,-0.25

row,Sequence,PBM E-score
1,AAAGGGCA,-0.207
2,CAACTTCA,-0.0982
3,TGGGAACA,-0.136
4,ATAAGACA,0.0326
5,CTGCTTAC,0.0232
6,ACAACAGC,-0.12
7,AGCCCACG,0.0362
8,ACGCAAAG,0.00366
9,AAAGTCCT,-0.18
10,ACGACTTG,0.265
11,GTGTCTAA,-0.191
12,AAGGGAGT,-0.172
13,CATGAAGA,0.07
14,GTCCTATA,-0.0744
15,AGACGAAG,0.0703
16,CGACGATA,0.222
17,AAATGCAA,-0.183
18,AACGTGGA,0.143
19,AAGTTTTC,0.0919
20,CGACAAAG,0.192
21,ATTCCTGC,-0.0241
22,CGCGAACC,0.231
23,CTGTTCTC,0.106
24,CCCTCGGC,-0.0239
25,GAGTCTCC,-0.133

row,Sequence,PBM E-score
1,CAAATCTA,-0.0105
2,GCAAACAC,0.0178
3,GAACCCGA,0.147
4,CAGAACGC,-0.0854
5,GCACTACC,0.00349
6,ACAGTCGA,-0.111
7,AAGCAGCG,0.00801
8,GCAATCCC,-0.0541
9,AGGTAACA,-0.00283
10,GAATGAAC,0.177
11,AAAAGAAA,0.0717
12,CCTTAAAC,0.119
13,CGGACCGA,0.331
14,ACCTCACA,-0.106
15,CACCGCGG,0.0948
16,ACCTCGAG,0.134
17,CATTATTA,0.0693
18,GCAAGGTA,-0.0994
19,CAGCCCCA,-0.153
20,GGATACAA,0.0413
21,CCTATGAA,-0.148
22,TGGGGACA,-0.0728
23,GAGTCTCA,-0.151
24,AGACATTA,-0.134
25,ATTGTGAA,-0.0321

row,Sequence,PBM E-score
1,CAAAGGCG,0.00346
2,ACTTACTA,-0.0247
3,CTTTCTAA,-0.213
4,ATACCCCA,-0.103
5,ATAATCTG,-0.213
6,AGGATCAA,-0.0775
7,CAAGATCA,-0.0888
8,ACCCCACC,0.122
9,AAATCCCT,-0.244
10,CGACTCAG,-0.016
11,CGAGAGAG,0.257
12,CGAACGAG,0.428
13,GTCGTTGA,0.259
14,CCATTAGG,-0.264
15,GGCGGCCC,-0.182
16,AACATTCA,-0.0167
17,AATACGAC,0.429
18,AATCTGGA,-0.119
19,AGCGGCTC,0.105
20,GGCCATAA,-0.187
21,AATACATC,0.0855
22,CCGGATAC,0.0706
23,GATTAAAA,-0.0368
24,CACATGGC,0.0232
25,AGAAGACC,-0.147

row,Sequence,PBM E-score
1,CGTAACTC,0.264
2,AGGTTCAT,-0.148
3,CATACCAC,0.0598
4,CCGCGTGC,-0.089
5,AGTCGCGA,0.286
6,TAGTGTGA,0.0564
7,AGCTATCC,-0.157
8,CTGTACTA,-0.0527
9,ACAAATGG,0.00688
10,CTACACGC,-0.223
11,AAGTTACA,-0.0991
12,CCTGCCGA,-0.114
13,GTACACTA,0.00781
14,TCCATAGA,-0.225
15,CTATGGCC,-0.282
16,CCCGAGGC,-0.151
17,ACGGGTTA,0.217
18,CCAACTCG,0.108
19,ATGCCAAG,-0.171
20,AGCACGGA,-0.117
21,CCCTGGAA,-0.179
22,ACGTATCC,0.0342
